Experimental findings from paper PMC6919601, “Identification of Plasmodium dipeptidyl aminopeptidase allosteric inhibitors by high throughput screening” (PLoS ONE, 2019) are described below.

Molecules are shown by their SMILES. In all, about 110,000 compounds went through this assay and about 230 (0.21%) showed an effect of 50% or more. The list shows a part of the results.
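Further: 30 min substrate incubation versus DMSO and 10 µM JCP410 controls.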

Chain of DPAP1 (Q8IIJ9 whole entry, looked up): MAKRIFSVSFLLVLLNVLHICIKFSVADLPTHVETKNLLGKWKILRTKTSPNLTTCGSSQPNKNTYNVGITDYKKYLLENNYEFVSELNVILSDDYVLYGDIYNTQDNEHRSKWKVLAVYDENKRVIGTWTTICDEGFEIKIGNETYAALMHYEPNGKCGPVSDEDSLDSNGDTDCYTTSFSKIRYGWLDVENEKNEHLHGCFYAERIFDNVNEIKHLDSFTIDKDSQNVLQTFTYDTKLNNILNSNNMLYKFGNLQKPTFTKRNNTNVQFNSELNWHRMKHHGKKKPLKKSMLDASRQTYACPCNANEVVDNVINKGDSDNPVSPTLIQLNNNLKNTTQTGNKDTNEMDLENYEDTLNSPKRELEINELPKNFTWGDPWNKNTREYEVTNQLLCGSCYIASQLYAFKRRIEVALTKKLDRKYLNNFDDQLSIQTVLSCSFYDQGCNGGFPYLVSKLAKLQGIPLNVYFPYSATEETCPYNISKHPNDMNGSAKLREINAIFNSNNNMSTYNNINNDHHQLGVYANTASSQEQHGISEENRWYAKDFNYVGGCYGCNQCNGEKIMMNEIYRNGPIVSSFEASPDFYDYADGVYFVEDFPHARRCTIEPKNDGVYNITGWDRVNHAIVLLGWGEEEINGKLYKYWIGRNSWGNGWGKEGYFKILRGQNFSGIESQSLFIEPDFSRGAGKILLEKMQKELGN

The assay has as its target DPAP1 (Plasmodium falciparum, UniProt Q8IIJ9). Put plainly: primary screen, percent inhibition; read by cleavage of a fluorogenic dipeptide substrate; higher = more effect of the substance. The arrangement: species or system P. falciparum D10 trophozoite lysates; single well.
Consider `CN(C)CCNC(=O)c1cn(C2CCCCC2)c(=O)c2c1c1ccccc1n2C`, for which the “% Inhibition @ 10 uM” value is reported as -3.39%. For `COc1ccc(S(=O)(=O)NCCc2ccc(OC)c(OC)c2)cc1` the value was 1.57%; for `CCC(C)NC(=O)c1cnn2c1NC(c1ccc(Br)cc1)CC2C(F)(F)F` (centres unmarked), 3.8%; for `Oc1nc2c(s1)C1c3c(ccc4ccccc34)OCC1CS2` (centres unmarked), 4.32%. For `Cc1cc(-c2ccc(C)c(S(=O)(=O)Nc3ccc(Cl)cn3)c2)on1` the value was 2.35%. For `O=C(c1oc(=O)c2ccccc2c1-c1ccccc1)N1CCN(C2CCCCC2)CC1` the value was -3.58%; for `CC(C)c1ccc(OCc2ccc(C(=O)N(C)C)o2)cc1`, -1.55%; for `Cc1ccc(C(=O)Nc2sc3c(c2C#N)CCCC3)cc1S(=O)(=O)N1CCCC1`, 0.746%. On to `Cc1ccc(S(=O)(=O)N2CCN(C(=O)c3ccccc3)C2c2ccccc2)cc1` (centres unmarked), for which the “% Inhibition @ 10 uM” value was found to be 6.11%. For the compound `O=C(O)C1CCCCC1C(=O)NCc1ccccn1` (centres unmarked), the “% Inhibition @ 10 uM” value is recorded as 0.727%. With `COc1ccc(S(=O)(=O)N(C)CC(=O)NC(C)(C)C)cc1OC`, the “% Inhibition @ 10 uM” value was determined as 2.44%.

Turning to `Cc1ccc(Cn2c(=O)c3ccccc3n3c(CCC(=O)NCCC4=CCCCC4)nnc23)cc1`, the “% Inhibition @ 10 uM” value is 3.97%.

`COc1ccc(-n2c(Cc3cccn3C)nnc2SCC(=O)NCc2ccccc2)cc1`: the “% Inhibition @ 10 uM” value is -3.95%.

As for `CCCS(=O)(=O)c1c(S(=O)(=O)CCC)c2cc(CC)ccn2c1C(=O)OC`, the “% Inhibition @ 10 uM” value was -3.28%. In the case of `Cc1c(C(=O)N(C)C2CCCCC2)sc2nc(-c3ccccc3)cn12`, the “% Inhibition @ 10 uM” value is listed as -0.138%.

As for `OCC1CCCCN1Cc1ccc(F)cc1` (centres unmarked), the “% Inhibition @ 10 uM” value turned out to be 3.53%. `NC1=C(c2nc3ccccc3s2)C(=O)CN1Cc1ccccc1Cl`: the “% Inhibition @ 10 uM” value worked out at 0.486%. As for `CSc1ncc(C(=O)NCc2cccc(Cl)c2)c(-c2ccccc2)n1`, the “% Inhibition @ 10 uM” value is given as 1.11%. As for `COc1ccc(C(=O)Nc2cc(C)ccc2C)cc1OC`, the figure is 2.65%; as for `O=c1oc2cc(-n3nc4ccc5ccccc5c4n3)ccc2cc1-c1ccccc1`, 3.74%. Regarding `O=C(Nc1ccccc1C(=O)NC1=NCCS1)c1ccc(Cl)cc1`, the “% Inhibition @ 10 uM” value is on record as -2.29%. For `Cc1ccsc1C(C#N)NC(=O)C(Cc1c(F)cccc1F)NC(=O)c1ccc(-c2ccccc2Cl)cc1` (centres unmarked) the value was 5.76%; for `O=C(Cn1ncc2c(=O)oc3ccccc3c21)NCC1COc2ccccc2O1` (centres unmarked), 2.39%; for `CN(Cc1ccccc1)C(=O)CCNS(=O)(=O)c1cc(Br)cnc1N`, 1.68%. Take `O=C(CC1CC2CCC1C2)NC1CCCCCCC1` (centres unmarked): the “% Inhibition @ 10 uM” value was 1.88%. Consider `Cc1ccc(S(=O)(=O)Nc2ccccc2SC(F)F)cc1`, for which the “% Inhibition @ 10 uM” value is 5.53%. In the case of `CCCCN(C)C(=O)/C(=C/c1cn(C)c2ccccc12)NC(=O)c1ccco1`, the “% Inhibition @ 10 uM” value is reported as -0.235%. For `CCN(CC)CCNC(=O)Cn1cnc2sc(C)c(S(=O)(=O)N3CCOCC3)c2c1=O` the value was -2.9%. As for `Cc1ccc(C(=O)/C=c2\[nH]c(=O)/c(=C/c3cccnc3)s2)cc1`, the figure is -0.828%; as for `Cc1cccc(N2CCN(C(=O)N[C@@H](CC(C)C)C(=O)NCC#N)CC2)c1C`, -3.48%. For the compound `COc1ccc(C2C(C#N)=C(N)Oc3c2c(=O)oc2ccccc32)cc1C` (centres unmarked), the “% Inhibition @ 10 uM” value came out at 5.77%. As for `CCN1CCN(C(=O)c2ccc(Cn3c(SCc4ccccc4F)nc4ccncc43)cc2)CC1`, the figure is -3.67%; as for `C=CCN1c2ccccc2Oc2nc3ccccc3nc21`, 0.381%. `CCc1ccc(NC(=O)c2csc3c2CCCC3)cc1`: the “% Inhibition @ 10 uM” value is reported as -0.132%. As for `Cc1sc(NC(=O)CSc2nc(O)c(C#N)c(-c3ccccc3)n2)nc1-c1ccccc1`, the “% Inhibition @ 10 uM” value is on record as 0.777%.

On to `CN1C(=O)N(C)C2(Nc3ccccc3N(C)C2=O)C1=O` (centres unmarked), for which the “% Inhibition @ 10 uM” value is 2.65%. As for `O=C(Cn1ncc2c3ccccc3n(Cc3ccccc3F)c2c1=O)NCCc1c[nH]c2ccccc12`, the figure is -0.0741%. In the case of `Cc1ccc(C)c(C2=CSC3=NCCN23)c1`, the “% Inhibition @ 10 uM” value is 1.39%. For `O=S1c2ccccc2C(O)N1c1ccccc1` (centres unmarked) the value was 2.13%.

On to `COCCN1C(=O)c2ccccc2C(C(=O)NCc2ccc(C)o2)C1c1cn(C)c2ccccc12` (centres unmarked), for which the “% Inhibition @ 10 uM” value is recorded as 0.738%. As for `N#CC1=C(N)Oc2ccc3ccc(O)cc3c2C1c1ccc(Br)cc1` (centres unmarked), the figure is 1.82%; as for `COc1ccc(-c2c(Cl)nc(N3CCCCC3)c(=O)n2-c2ccccc2)cc1OC`, -5.63%.

With `CN1C(=O)C(O)(CC(=O)c2ccccn2)c2ccccc21` (centres unmarked), the “% Inhibition @ 10 uM” value is recorded as -5.14%.

As to `O=C(CCCCn1c(=O)[nH]c2ccsc2c1=O)NCCc1ccc(Cl)cc1`, the “% Inhibition @ 10 uM” value is recorded as -0.228%. For `COC(=O)C1=C(C)N(CCc2ccccc2)C(=O)/C1=C\c1cc2c(cc1Br)OCO2` the value was -1.6%; for `COc1ccc(-c2csc(/C(C#N)=C\Nc3ccccc3C)n2)cc1`, -3.26%; for `Cc1cc(Oc2nc3ccccn3c(=O)c2/C=C(\C#N)C(=O)NCCc2ccccc2)ccc1Cl`, 3%. As for `CCCCNc1nc(=S)n(-c2ccccc2)c(C)c1C(C)=O`, the figure is 3.05%.

In the case of `Cn1c2c(c(=O)n(C)c1=O)CN(CC1CCCO1)CN2` (centres unmarked), the “% Inhibition @ 10 uM” value worked out at 0.66%.

Consider `CC(=O)c1c(C(C)=O)c(C)n(-c2cc(C)cc(C)c2)c1C`, for which the “% Inhibition @ 10 uM” value is given as -2.48%. For `CCCN1CCC(NC2CCN(Cc3ccccc3)CC2)CC1`, the “% Inhibition @ 10 uM” value was determined as 4.28%.

Turning to `CCN(CC)C(=O)c1sc(NC(=O)c2c(-c3ccccc3Cl)noc2C)c(C(=O)OC)c1C`, the “% Inhibition @ 10 uM” value is -3.02%. For `O=C(O)c1ccc(NC(=O)c2ccc3c(c2)C(=O)N(c2ccc(C(=O)O)cc2)C3=O)cc1` the value was -4.96%; for `O=C(O)CCCC(=O)NCc1ccc2c(c1)OCO2`, 0.64%. As to `CC(=O)N(C)c1ccc(NC(=O)COc2cccc(C)c2)cc1`, the “% Inhibition @ 10 uM” value is reported as -2.09%. For `Cc1ccc2c(Sc3ccc(Cl)cc3)c(C(=O)N3CCOCC3)[nH]c2c1`, the “% Inhibition @ 10 uM” value is on record as -5.1%.

Regarding `CC1(C)CC(=O)C2=C(C1)N(c1ccc(Cl)cc1)C(N)=C(C#N)C2c1ccc2c(c1)OCO2` (centres unmarked), the “% Inhibition @ 10 uM” value was found to be 5.31%. Take `Cc1ccsc1CN1CCc2c([nH]c3ccccc23)C1`: the “% Inhibition @ 10 uM” value is -2.81%. For `Cn1c(=O)[nH]c(=O)c2c1nc(N1CCN(Cc3ccccc3)CC1)n2Cc1ccccc1F` the value was -6.43%. For `COc1ccc(CON2C(=O)c3ccccc3C2=O)cc1Cl` the value was -5.28%; for `Cc1ccc(C(=O)Nc2cccc3c2CCCC3)cc1`, 2.65%; for `CCCCN(C(=O)c1ccccc1)C1=CC2CCC(C1)N2C` (centres unmarked), 0.708%.
